Laboratory results as given in the supplement of paper PMC4967469.
Lines with a small IC50 respond at low doses; where the fit passes the top or lowest dose, that dose stands as a limit. AUC sums up the same curve from the lowest dose to the 256-fold higher top dose: 1 means no effect, lower means more sensitive. For some assays here: A top dose marked as inferred was derived from the fitted curves, not read from the paper. For some assays here: Drugs with an entry number were screened twice under separate entries, and the two screens often disagree.

What was measured:
Assay in all cases: Viability of human cancer cell lines after 72 h of drug (GDSC screen)
BX-795 = compound: O=C(NCCCNc1nc(Nc2cccc(NC(=O)N3CCCC3)c2)ncc1I)c1cccs1 [BX-795]; conditions: top dose 5 µM; top dose inferred
Experimental: (§1)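 Human cancer cell lines in 384-well plates, medium with 10% serum, drug for 72 h over a 256-fold dose range (nine 2-fold or five 4-fold steps up to the top dose). Adherent lines were fixed and stained with the nucleic acid dye Syto60, suspension lines read with resazurin; signal relative to control wells, capped at 0 and 100%. One two-parameter sigmoid per drug and line, fitted in a mixed model over all curves with the slope shared within a line.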

SB-505124 = compound: Cc1cccc(-c2[nH]c(C(C)(C)C)nc2-c2ccc3c(c2)OCO3)n1 [SB-505124]; conditions: top dose 10 µM; top dose inferred
Experimental: as §1

Tretinoin = compound: CC1=C(/C=C/C(C)=C/C=C/C(C)=C/C(=O)O)C(C)(C)CCC1 [Tretinoin]; conditions: top dose 10 µM; top dose inferred
Experimental: as §1

GSK690693 = compound: CCn1c(-c2nonc2N)nc2c(C#CC(C)(C)O)ncc(OC[C@H]3CCCNC3)c21 [GSK690693]; conditions: top dose 10.24 µM; top dose inferred
Experimental: as §1

UNC0638 = compound: COc1cc2c(NC3CCN(C(C)C)CC3)nc(C3CCCCC3)nc2cc1OCCCN1CCCC1 [UNC0638]
Experimental: as §1

PI-103 = compound: Oc1cccc(-c2nc(N3CCOCC3)c3oc4ncccc4c3n2)c1 [PI-103]; conditions: top dose 10.24 µM
Experimental: as §1

WH-4-023 = compound: COc1ccc(N(C(=O)Oc2c(C)cccc2C)c2ccnc(Nc3ccc(N4CCN(C)CC4)cc3)n2)c(OC)c1 [WH-4-023]; conditions: top dose 5.12 µM; top dose inferred
Experimental: as §1

[1] = top dose 20 µM, screen: GDSC drug entry 1236, top dose inferred
[2] = top dose 40 µM, screen: GDSC drug entry 245

| Cell Line | AUC (BX-795) | IC50 (BX-795) [µM] | AUC (SB-505124) | IC50 (SB-505124) [µM] | AUC (Tretinoin) | IC50 (Tretinoin) [µM] | AUC (GSK690693) | IC50 (GSK690693) [µM] | AUC (UNC0638; [1]) | IC50 (UNC0638; [1]) [µM] | AUC (PI-103) | IC50 (PI-103) [µM] | AUC (WH-4-023) | IC50 (WH-4-023) [µM] | AUC (UNC0638; [2]) | IC50 (UNC0638; [2]) [µM] |
| --- | --- | --- | --- | --- | --- | --- | --- | --- | --- | --- | --- | --- | --- | --- | --- | --- |
| KARPAS-231 (B-cell leukaemia, suspension) | 0.757 | 1.37 | 0.993 | > 10 | 0.117 | 0.0599 | 0.202 | 0.112 | 0.85 | 10.2 | 0.031 | < 0.04 | 0.586 | 0.52 |  |  |
| KARPAS-299 (anaplastic large cell lymphoma, suspension) | 0.925 | > 5 | 0.98 | > 10 | 0.991 | > 10 | 0.992 | > 10.2 | 0.638 | 2.8 | 0.728 | 2.48 | 0.976 | > 5.12 | 0.678 | 7.1 |
| KARPAS-422 (B-cell lymphoma, suspension) | 0.8 | 2.38 | 0.981 | > 10 | 0.901 | > 10 | 0.333 | 0.221 | 0.809 | 10.2 | 0.165 | 0.0621 | 0.873 | 4.8 | 0.652 | 6.56 |
| KARPAS-620 (haematopoietic neoplasm, suspension) | 0.938 | > 5 | 0.977 | > 10 | 0.99 | > 10 | 0.554 | 0.878 | 0.722 | 4.76 | 0.142 | 0.0622 | 0.985 | > 5.12 | 0.488 | 2.33 |
| KCL-22 (chronic myeloid leukaemia, suspension) | 0.891 | 4.16 | 0.981 | > 10 | 0.979 | > 10 | 0.898 | 9.17 | 0.822 | 9.31 | 0.24 | 0.133 | 0.409 | 0.188 | 0.634 | 5.48 |
| KE-37 (lymphoblastic leukaemia, suspension) | 0.81 | 1.91 | 0.985 | > 10 | 0.956 | > 10 | 0.152 | 0.081 | 0.85 | 10 | 0.308 | 0.215 | 0.975 | > 5.12 | 0.601 | 4.42 |
| KELLY (neuroblastoma, adherent) | 0.86 | 3.58 | 0.839 | 5.96 | 0.877 | 8.51 | 0.989 | > 10.2 | 0.608 | 2.4 | 0.498 | 0.634 | 0.972 | > 5.12 | 0.603 | 4.65 |
| KGN (ovary, adherent) | 0.797 | 2.94 | 0.834 | 8.59 | 0.977 | > 10 | 0.928 | > 10.2 | 0.789 | 10.9 | 0.2 | 0.0656 | 0.677 | 1.12 | 0.64 | 6.66 |
| KINGS-1 (glioma, adherent) | 0.836 | > 5 | 0.951 | > 10 | 0.978 | > 10 | 0.968 | > 10.2 | 0.802 | 14.5 | 0.686 | 2.61 | 0.64 | 0.907 | 0.587 | 4.73 |
| KLE (endometrium, adherent) | 0.959 | > 5 | 0.975 | > 10 | 0.954 | > 10 | 0.868 | > 10.2 | 0.945 | > 20 | 0.62 | 1.65 | 0.612 | 0.772 | 0.848 | > 40 |
| KM12 (large intestine, adherent) | 0.842 | 3.96 | 0.984 | > 10 | 0.983 | > 10 | 0.846 | 8.48 | 0.981 | > 20 | 0.716 | 2.77 | 0.978 | > 5.12 | 0.687 | 8.76 |
| KM-H2 (Hodgkin lymphoma, suspension) | 0.993 | > 5 | 0.99 | > 10 | 0.971 | > 10 | 0.98 | > 10.2 | 0.988 | > 20 | 0.585 | 1.05 | 0.945 | > 5.12 | 0.988 | > 40 |
| KMOE-2 (acute myeloid leukaemia, suspension) | 0.857 | 3.39 | 0.969 | > 10 | 0.967 | > 10 | 0.946 | > 10.2 | 0.802 | 8.62 | 0.924 | > 10.2 | 0.989 | > 5.12 | 0.643 | 5.91 |
| KNS-42 (glioma, adherent) | 0.956 | > 5 | 0.976 | > 10 | 0.821 | 7.3 | 0.984 | > 10.2 | 0.854 | > 20 | 0.881 | > 10.2 | 0.857 | > 5.12 | 0.749 | 15.2 |
| KOPN-8 (B-cell leukaemia, suspension) | 0.807 | 2.13 | 0.982 | > 10 | 0.977 | > 10 | 0.96 | > 10.2 | 0.794 | 7.75 | 0.364 | 0.286 | 0.963 | > 5.12 | 0.67 | 6.88 |
| KP-N-YN (neuroblastoma, adherent) | 0.986 | > 5 | 0.813 | 6.04 | 0.987 | > 10 | 0.983 | > 10.2 | 0.808 | 11.6 | 0.886 | > 10.2 | 0.891 | > 5.12 | 0.755 | 14.8 |
| KS-1 (glioma, adherent) | 0.757 | 2.11 | 0.958 | > 10 | 0.818 | 7.51 | 0.878 | > 10.2 | 0.851 | > 20 | 0.694 | 2.58 | 0.304 |  | 0.619 | 5.8 |
